# Test results from the antibiotic and cytotoxicity screens of Wong et al. (2023).
# This is one part of the list.
# Assays:
# HSkMC = human skeletal muscle cells; test: cytotoxicity call (relative viability < 0.9); settings: 10 µM
# S. aureus RN4220 = test: growth inhibition call (relative growth <= 0.2); settings: 50 µM
Compound,cytotoxicity call (HSkMC),growth inhibition call (S. aureus RN4220)
CCn1c(=S)ccc2ccccc21,inactive,inactive
CCNC(=O)C[C@@H]1CC[C@H](NC(=O)C2CCOCC2)[C@H](CO)O1,inactive,inactive
O=C(N/N=C/[C@H](O)[C@@H](O)[C@H](O)CO)c1ccccc1O,inactive,inactive
Cc1ccc(S(=O)(=O)N(C)C[C@@H]2OCCCC[C@@H](C)Oc3ccc(NC(=O)CCC(F)(F)F)cc3C(=O)N([C@H](C)CO)C[C@H]2C)cc1,inactive,inactive
COCC#Cc1cnc2c(c1)C(=O)N([C@@H](C)CO)C[C@H](C)[C@@H](CN(C)C(=O)c1cnccn1)O2,inactive,inactive
COc1ccc2c3c([nH]c2c1)[C@H](CO)N(C[C@]13CN(C1)S(=O)(=O)c1cccs1)C(=O)c1ccccc1,inactive,inactive
C=CCOC(=O)[C@@H]1[C@H]2C(=O)O[C@H](c3ccccc3)[C@H](c3ccccc3)N2[C@H](c2ccc(OCCOC(=O)[C@@H]3C[C@@H]4C(=O)N5CCC[C@H]5C(=O)N4[C@@H]3c3ccc(O)cc3)cc2)[C@@]12C(=O)Nc1ccccc12,inactive,inactive
C[C@@H]1CN([C@@H](C)CO)C(=O)c2cccc(NC(=O)Nc3ccc(C(F)(F)F)cc3)c2O[C@H]1CN(C)C(=O)Nc1ccc2c(c1)OCO2,inactive,inactive
